Experimental data from patent publication US9266939B2, “Compositions comprising natriuretic peptides and methods of use thereof” (Alexion Pharmaceuticals, Inc., priority 2010, dated 2016).
Marks after values point to notes of the source that are not given here.

How the values were obtained:
[1] = test system: wild-type (CD-1) mice; test: Weekly bolus SC injection of NC2B on bone growth in wild-type (CD-1) mice; format: in vivo; conditions: for Crown-rump length in vivo (ruler) / Crown-rump length in vivo (ruler), % Δ compared to Vehicle / Crown-rump length in vivo (ruler), Δ compared to Vehicle / Left Femur length, % Δ compared to Vehicle / Left Femur length, Δ compared to Vehicle / Left Humerus length, % Δ compared to Vehicle / Left Humerus length, Δ compared to Vehicle / Left Tibia length, % Δ compared to Vehicle / Left Tibia length, Δ compared to Vehicle / Left Ulna length, % Δ compared to Vehicle / Left Ulna length, Δ compared to Vehicle / Naso-anal length (X-Ray) / Naso-anal length (X-Ray), % Δ compared to Vehicle / Naso-anal length (X-Ray), Δ compared to Vehicle / Tail length in vivo (ruler) / Tail length in vivo (ruler), % Δ compared to Vehicle / Tail length in vivo (ruler), Δ compared to Vehicle / Total CTL (cervical, thoracic, and lumbar) segments (X-Ray) / Total CTL segments (X-Ray), % Δ compared to Vehicle / Total CTL segments (X-Ray), Δ compared to Vehicle: day 36; for Left Femur length / Left Humerus length / Left Tibia length / Left Ulna length: day 36, caliper at necropsy
Experimental: The study was designed to evaluate the effect of weekly subcutaneous (SC) administration of NC2B on bone growth in wild-type (WT) mice.
CD-1 mice are a standard rodent species for use in pharmacodynamic studies, and these mice are described above in Example 14.
The animals received NC2B as a subcutaneous injection into the interscapular region as described in Table 18 below.
CD-1 mice were treated at 3 weeks old at the indicated doses for 35 consecutive days, followed by necropsy 24 hours after the last injection.
Experiments were conducted as described above in Example 14.
Experimental results are shown in FIGS. 44A-44B and are summarized in Table 19 (results at day 36) below. Data in Table 19 were obtained at necropsy with a caliper, unless otherwise noted.

[2] = target: NPR-B (Homo sapiens, UniProt P20594); test: EC50 (nM)
[3] = Tx-30-QD: 30 mg/kg SC once daily, 35 days
[4] = Tx-30-QW: 30 mg/kg SC once weekly, 35 days
[5] = Tx-100-5QD: 100 mg/kg SC once daily 5 days, then 30 days recovery
[6] = Tx-100-QW: 100 mg/kg SC once weekly, 35 days
[7] = Tx-200-QW: 200 mg/kg SC once weekly, 35 days

B1: NC2B: NC2st without the sequence N-terminal to the Fc domain; SEQ ID NO: 504 (protein)
chain: [not shown - human IgG1 Fc]GGGGSGGGGSGGGGSGGLSKGCFGLKLDRIGSMSGLGC
modifications: Synthetic Construct (NC2B (w/o sig. seq.))
- Crown-rump length in vivo (ruler) [1, 3]: 106* mm
- Crown-rump length in vivo (ruler), % Δ compared to Vehicle [1, 3]: 8.3%
- Crown-rump length in vivo (ruler), Δ compared to Vehicle [1, 3]: 8.1 mm
- Left Femur length, % Δ compared to Vehicle [1, 3]: 8.0%
- Left Femur length, Δ compared to Vehicle [1, 3]: 1.2 mm
- Left Humerus length, % Δ compared to Vehicle [1, 3]: 4.9%
- Left Humerus length, Δ compared to Vehicle [1, 3]: 0.6 mm
- Left Tibia length, % Δ compared to Vehicle [1, 3]: 5.1%
- Left Tibia length, Δ compared to Vehicle [1, 3]: 0.9 mm
- Left Ulna length, % Δ compared to Vehicle [1, 3]: 6.4%
- Left Ulna length, Δ compared to Vehicle [1, 3]: 0.9 mm
- Naso-anal length (X-Ray) [1, 3]: 120* mm
- Naso-anal length (X-Ray), % Δ compared to Vehicle [1, 3]: 11.1%
- Naso-anal length (X-Ray), Δ compared to Vehicle [1, 3]: 12 mm
- Tail length in vivo (ruler) [1, 3]: 109* mm
- Tail length in vivo (ruler), % Δ compared to Vehicle [1, 3]: 10.0%
- Tail length in vivo (ruler), Δ compared to Vehicle [1, 3]: 9.9 mm
- Total CTL (cervical, thoracic, and lumbar) segments (X-Ray) [1, 3]: 57.9* mm
- Total CTL segments (X-Ray), % Δ compared to Vehicle [1, 3]: 13.5%
- Total CTL segments (X-Ray), Δ compared to Vehicle [1, 3]: 6.9 mm
- Left Femur length [1, 3]: 16.2* mm
- Left Humerus length [1, 3]: 12.8* mm
- Left Tibia length [1, 3]: 18.7* mm
- Left Ulna length [1, 3]: 14.9* mm
- Crown-rump length in vivo (ruler) [1, 4]: 103* mm
- Crown-rump length in vivo (ruler), % Δ compared to Vehicle [1, 4]: 5.2%
- Crown-rump length in vivo (ruler), Δ compared to Vehicle [1, 4]: 5.1 mm
- Left Femur length, % Δ compared to Vehicle [1, 4]: 4.0%
- Left Femur length, Δ compared to Vehicle [1, 4]: 0.6 mm
- Left Humerus length, % Δ compared to Vehicle [1, 4]: 3.3%
- Left Humerus length, Δ compared to Vehicle [1, 4]: 0.4 mm
- Left Tibia length, % Δ compared to Vehicle [1, 4]: 3.4%
- Left Tibia length, Δ compared to Vehicle [1, 4]: 0.6 mm
- Left Ulna length, % Δ compared to Vehicle [1, 4]: 2.9%
- Left Ulna length, Δ compared to Vehicle [1, 4]: 0.4 mm
- Naso-anal length (X-Ray) [1, 4]: 114*^# mm
- Naso-anal length (X-Ray), % Δ compared to Vehicle [1, 4]: 5.6%
- Naso-anal length (X-Ray), Δ compared to Vehicle [1, 4]: 6.0 mm
- Tail length in vivo (ruler) [1, 4]: 104* mm
- Tail length in vivo (ruler), % Δ compared to Vehicle [1, 4]: 4.9%
- Tail length in vivo (ruler), Δ compared to Vehicle [1, 4]: 4.9 mm
- Total CTL (cervical, thoracic, and lumbar) segments (X-Ray) [1, 4]: 54.4*^# mm
- Total CTL segments (X-Ray), % Δ compared to Vehicle [1, 4]: 6.7%
- Total CTL segments (X-Ray), Δ compared to Vehicle [1, 4]: 3.4 mm
- Left Femur length [1, 4]: 15.6*^# mm
- Left Humerus length [1, 4]: 12.6* mm
- Left Tibia length [1, 4]: 18.4* mm
- Left Ulna length [1, 4]: 14.4 mm
- Crown-rump length in vivo (ruler) [1, 5]: 101^# mm
- Crown-rump length in vivo (ruler), % Δ compared to Vehicle [1, 5]: 3.2%
- Crown-rump length in vivo (ruler), Δ compared to Vehicle [1, 5]: 3.1 mm
- Left Femur length, % Δ compared to Vehicle [1, 5]: 2.0%
- Left Femur length, Δ compared to Vehicle [1, 5]: 0.3 mm
- Left Humerus length, % Δ compared to Vehicle [1, 5]: 1.6%
- Left Humerus length, Δ compared to Vehicle [1, 5]: 0.2 mm
- Left Tibia length, % Δ compared to Vehicle [1, 5]: 3.4%
- Left Tibia length, Δ compared to Vehicle [1, 5]: 0.6 mm
- Left Ulna length, % Δ compared to Vehicle [1, 5]: 2.9%
- Left Ulna length, Δ compared to Vehicle [1, 5]: 0.4 mm
- Naso-anal length (X-Ray) [1, 5]: 112^# mm
- Naso-anal length (X-Ray), % Δ compared to Vehicle [1, 5]: 3.7%
- Naso-anal length (X-Ray), Δ compared to Vehicle [1, 5]: 4.0 mm
- Tail length in vivo (ruler) [1, 5]: 104*^# mm
- Tail length in vivo (ruler), % Δ compared to Vehicle [1, 5]: 4.9%
- Tail length in vivo (ruler), Δ compared to Vehicle [1, 5]: 4.9 mm
- Total CTL (cervical, thoracic, and lumbar) segments (X-Ray) [1, 5]: 53.0*^# mm
- Total CTL segments (X-Ray), % Δ compared to Vehicle [1, 5]: 3.9%
- Total CTL segments (X-Ray), Δ compared to Vehicle [1, 5]: 2.0 mm
- Left Femur length [1, 5]: 15.3^# mm
- Left Humerus length [1, 5]: 12.4^# mm
- Left Tibia length [1, 5]: 18.4* mm
- Left Ulna length [1, 5]: 14.4 mm
- Crown-rump length in vivo (ruler) [1, 6]: 103* mm
- Crown-rump length in vivo (ruler), % Δ compared to Vehicle [1, 6]: 5.2%
- Crown-rump length in vivo (ruler), Δ compared to Vehicle [1, 6]: 5.1 mm
- Left Femur length, % Δ compared to Vehicle [1, 6]: 4.0%
- Left Femur length, Δ compared to Vehicle [1, 6]: 0.6 mm
- Left Humerus length, % Δ compared to Vehicle [1, 6]: 3.3%
- Left Humerus length, Δ compared to Vehicle [1, 6]: 0.4 mm
- Left Tibia length, % Δ compared to Vehicle [1, 6]: 2.8%
- Left Tibia length, Δ compared to Vehicle [1, 6]: 0.5 mm
- Left Ulna length, % Δ compared to Vehicle [1, 6]: 2.9%
- Left Ulna length, Δ compared to Vehicle [1, 6]: 0.4 mm
- Naso-anal length (X-Ray) [1, 6]: 115*^# mm
- Naso-anal length (X-Ray), % Δ compared to Vehicle [1, 6]: 6.5%
- Naso-anal length (X-Ray), Δ compared to Vehicle [1, 6]: 7.0 mm
- Tail length in vivo (ruler) [1, 6]: 104* mm
- Tail length in vivo (ruler), % Δ compared to Vehicle [1, 6]: 4.9%
- Tail length in vivo (ruler), Δ compared to Vehicle [1, 6]: 4.9 mm
- Total CTL (cervical, thoracic, and lumbar) segments (X-Ray) [1, 6]: 54.5*^# mm
- Total CTL segments (X-Ray), % Δ compared to Vehicle [1, 6]: 6.9%
- Total CTL segments (X-Ray), Δ compared to Vehicle [1, 6]: 3.5 mm
- Left Femur length [1, 6]: 15.6*^# mm
- Left Humerus length [1, 6]: 12.6* mm
- Left Tibia length [1, 6]: 18.3 mm
- Left Ulna length [1, 6]: 14.4 mm
- Crown-rump length in vivo (ruler) [1, 7]: 104* mm
- Crown-rump length in vivo (ruler), % Δ compared to Vehicle [1, 7]: 6.2%
- Crown-rump length in vivo (ruler), Δ compared to Vehicle [1, 7]: 6.1 mm
- Left Femur length, % Δ compared to Vehicle [1, 7]: 5.3%
- Left Femur length, Δ compared to Vehicle [1, 7]: 0.8 mm
- Left Humerus length, % Δ compared to Vehicle [1, 7]: 3.3%
- Left Humerus length, Δ compared to Vehicle [1, 7]: 0.4 mm
- Left Tibia length, % Δ compared to Vehicle [1, 7]: 3.9%
- Left Tibia length, Δ compared to Vehicle [1, 7]: 0.7 mm
- Left Ulna length, % Δ compared to Vehicle [1, 7]: 2.1%
- Left Ulna length, Δ compared to Vehicle [1, 7]: 0.3 mm
- Naso-anal length (X-Ray) [1, 7]: 117* mm
- Naso-anal length (X-Ray), % Δ compared to Vehicle [1, 7]: 8.3%
- Naso-anal length (X-Ray), Δ compared to Vehicle [1, 7]: 9.0 mm
- Tail length in vivo (ruler) [1, 7]: 107* mm
- Tail length in vivo (ruler), % Δ compared to Vehicle [1, 7]: 8.0%
- Tail length in vivo (ruler), Δ compared to Vehicle [1, 7]: 7.9 mm
- Total CTL (cervical, thoracic, and lumbar) segments (X-Ray) [1, 7]: 55.9*^# mm
- Total CTL segments (X-Ray), % Δ compared to Vehicle [1, 7]: 9.6%
- Total CTL segments (X-Ray), Δ compared to Vehicle [1, 7]: 4.9 mm
- Left Femur length [1, 7]: 15.8* mm
- Left Humerus length [1, 7]: 12.6* mm
- Left Tibia length [1, 7]: 18.5* mm
- Left Ulna length [1, 7]: 14.3^# mm
- bone growth ([1]; daily and weekly regimens, 35-day treatment period, wild-type mice): induced robust growth of almost all bone lengths
- EC50 [2]: 1090 nM
